PubChem BioAssay AID463173 (ICCB-Longwood Screening Facility, Harvard Medical School, 2010)
The whole screen tested about 52,000 compounds, of which about 4,300 (8.3%) were called active. Cut-off read from the data, not from the text of the source: active = survival mostly below about 52% (no sharp cut-off); inactive = mostly above about 56%. The list shows a part of the results.

Test system: DeltatarO mutant
Experiment: growth inhibition of S. aureus wild type versus tarO mutant, primary screen, teichoic acid synthesis inhibitors, RN4220, OD600 (AID 463173)
Details: OD600, 18 h, stronger effect = lower value, screened at 18.75 µg/mL (by protocol)

`Cc1ccc(N2CC(NC(=O)C3CCCC3)CC2=O)cc1C` (configuration not stated) was tested. Which survival did it give?
The survival was inactive: 103%.

For `CCOCc1[nH]c(=S)[nH]c(=O)c1Cc1ccc(OCC)cc1`, which survival is on record?
Its survival is inactive: 62%.

`CC(C)c1ccc(NC(=O)CN2CCC(n3nnc4ccccc43)CC2)cc1` was tested. Which survival did it give?
Its survival is inactive: 69%.

With `CCNC(=O)C1CCCN(c2nn3cc(-c4ccc(C)cc4)nc3s2)C1` (configuration not stated) as the compound, how does the survival read?
Its survival is inactive: 74%.

With `CC(C)c1ccc(CNCCSc2nnnn2-c2ccccc2)cc1` as the compound, how does the survival read?
Its survival is inactive: 81%.

With `CCc1ccc(NC(=O)Cn2c(=O)n(CCC(=O)NCCc3ccc(OC)c(OC)c3)c(=O)c3ccccc32)cc1` as the compound, how does the survival read?
The survival was inactive: 91%.

For `CCC(C)S(=O)(=O)c1oc(-c2ccc(F)cc2)nc1S(=O)(=O)c1ccc(F)cc1` (configuration not stated), which survival is on record?
Its survival is active: 41%.

For `Cc1scc(-c2ccccc2)[n+]1CCO`, which survival is on record?
Its survival is inactive: 74%.

For `CCOc1ccc(-n2nc3ccc(NC(=O)COc4ccccc4)cc3n2)cc1`, which survival is on record?
The survival was inactive: 68%.

Which survival does the source give for `CC(=O)Oc1ccccc1C(=O)N1CC(C)OC(C)C1` (configuration not stated) here?
Its survival is inactive: 77%.

For `CCOC(=O)c1c(-c2ccccc2)oc2cc(Br)c(OCc3ccccc3)cc12`, which survival is on record?
The survival was active: 36%.

Which survival does the source give for `CCn1c(=N)c(C(=O)NC2CCCC2)cc2c(=O)n3cc(C)ccc3nc21` here?
Its survival is inactive: 50%.

For `Cc1ccc(OCCCCn2nnc3sc4c(c3c2=O)CCC(C)C4)cc1` (configuration not stated), which survival is on record?
Its survival is inactive: 56%.

With `CC(=O)N(Cc1ccccc1)Cc1cc2cc(C)ccc2n2nnnc12` as the compound, how does the survival read?
The survival was inactive: 77%.

How did the survival turn out when `CCN(CC)S(=O)(=O)c1ccc2c(c1)N(CC(=O)NCCCN1CCN(c3cc(C)ccc3C)CC1)C(=O)CO2` was run?
Its survival is inactive: 112%.

`O=C(Cn1c(=O)n(-c2ccc(F)c(Cl)c2)c(=O)c2sc3ccccc3c21)NC1CCCCC1` was tested. Which survival did it give?
Its survival is inactive: 102%.

Which survival does the source give for `CC(C)CNS(=O)(=O)c1ccc(S(=O)(=O)N2CCCN(Cc3ccccc3)C2)cc1` here?
Its survival is inactive: 59%.

`Cc1ccc(Cl)cc1Nc1nn2c(=O)c3ccc(C(=O)NC4CCC(C)CC4)cc3nc2s1` (configuration not stated) was tested. Which survival did it give?
The survival was inactive: 100%.

`CN1CCN(C2(CNC(=O)COc3ccc(C(C)(C)C)cc3)CCCCC2)CC1` was tested. Which survival did it give?
Its survival is inactive: 77%.

Which survival does the source give for `CCc1cccc(C)c1NC(=O)C(NS(=O)(=O)c1ccc2c(c1)CCC(=O)N2)c1ccccc1` (configuration not stated) here?
The survival was inactive: 89%.

How did the survival turn out when `CCN1CCc2c(sc(-n3cccc3)c2C(CCC(C)C)NC(=O)NCCC(=O)OC)C1` (configuration not stated) was run?
Its survival is inactive: 101%.

`CCCn1c2ccccc2c2cnn(CC(=O)NCCCOC(C)C)c(=O)c21` was tested. Which survival did it give?
Its survival is active: -5%.

With `Cc1ccc(C)c(N2CCN(C(c3ccccc3)c3nnc(-c4ccccc4)o3)CC2)c1` (configuration not stated) as the compound, how does the survival read?
The survival was active: -5%.

`COc1ccc(CN(Cc2ccco2)S(=O)(=O)c2ccc(S(=O)(=O)N3CCCC3)cc2)cc1` was tested. Which survival did it give?
Its survival is inactive: 78%.

Which survival does the source give for `Cc1ccc(NS(=O)(=O)c2c(C)nc3sc(C)c(C)n3c2=O)cc1F` here?
The survival was inactive: 60%.

With `CCOC(=O)c1cc(-c2ccccc2)n(-c2cccc(C(=O)NC(C)(C)C)c2)c1C` as the compound, how does the survival read?
Its survival is inactive: 112%.

How did the survival turn out when `CCOC(=O)c1cnc2ccc(OCC)cc2c1NCCc1ccc(OC)c(OC)c1` was run?
Its survival is inactive: 116%.

`CCOc1ccc(S(=O)(=O)NCc2cccn2Cc2cccc(C)c2)cc1` was tested. Which survival did it give?
Its survival is inactive: 84%.

`CC(C)COc1ccc(C(=O)N(Cc2cccc(F)c2)C2CCS(=O)(=O)C2)cc1` (configuration not stated) was tested. Which survival did it give?
Its survival is inactive: 77%.

How did the survival turn out when `CCCn1c(=N)c(C(=O)NC2CCCCC2)cc2c(=O)n3cc(C)ccc3nc21` was run?
The survival was inactive: 51%.

How did the survival turn out when `O=C(Cn1c(=O)n(Cc2ccc(F)cc2)c(=O)c2sc3ccccc3c21)Nc1ccc(F)cc1F` was run?
The survival was inactive: 68%.

For `COC(=O)CCNC(=O)N1CCN(c2nnc(C)c3c(C)n(-c4ccccc4)nc23)CC1`, which survival is on record?
The survival was inactive: 95%.

`COc1cc(C(=O)NCc2nc(-c3ccc(Cl)cc3)no2)cc(OC)c1OC` was tested. Which survival did it give?
Its survival is inactive: 59%.

How did the survival turn out when `COc1cccc(CNC(=O)Cn2cccc2C(=O)c2ccccc2)c1` was run?
Its survival is inactive: 87%.

`COc1ccc(C(=O)N2CCN(c3nc4c(OC)cccc4s3)CC2)cc1OC` was tested. Which survival did it give?
Its survival is inactive: 72%.

Which survival does the source give for `COc1ccc(OC)c(-n2c(-c3cc(-c4ccco4)[nH]n3)n[nH]c2=S)c1` here?
The survival was inactive: 70%.

With `O=C(NCCCN1CCOCC1)C1CC(c2ccccc2O)=NO1` (configuration not stated) as the compound, how does the survival read?
The survival was inactive: 97%.

Which survival does the source give for `O=C(CSc1nc2ccsc2c(=O)n1-c1ccc(Br)cc1)NCc1ccc(Cl)cc1` here?
Its survival is inactive: 74%.

For `COc1cccc(-c2nc(CS(=O)(=O)CC(=O)Nc3ccc(C)c(Cl)c3)c(C)o2)c1`, which survival is on record?
Its survival is inactive: 98%.

How did the survival turn out when `COc1ccc(CCNC(=O)Cc2ccc(NC(=O)N3CCSc4ncccc43)cc2)cc1OC` was run?
Its survival is inactive: 73%.

With `Cc1cccc(NC(=O)c2cc3c([nH]c2=O)CC(c2ccccc2)CC3=O)c1` (configuration not stated) as the compound, how does the survival read?
The survival was active: 20%.

`Cc1ccc(N2CC(NC(=O)C3CCCCC3)CC2=O)cc1` (configuration not stated) was tested. Which survival did it give?
The survival was inactive: 100%.

With `O=C(NCc1ccco1)c1c2c(nc3ccccc13)-c1ccccc1CC2` as the compound, how does the survival read?
Its survival is inactive: 69%.

`COc1ccc(NC(=O)CSCc2cc(=O)c3cc(Cl)ccc3[nH]2)cc1` was tested. Which survival did it give?
The survival was inactive: 67%.

How did the survival turn out when `Cc1cccc(C(=O)Nc2cc(-c3ccccc3F)nn2-c2ccccc2)c1` was run?
The survival was inactive: 72%.

`CCOc1ccc(C2CC(=O)Nc3c2c(=O)[nH]c2ncnn32)cc1` (configuration not stated) was tested. Which survival did it give?
The survival was inactive: 66%.

With `CCn1c(CNC(=O)c2ccc(OC)cc2)nnc1SCC(=O)Nc1ccc(F)cc1` as the compound, how does the survival read?
The survival was inactive: 130%.

Which survival does the source give for `CCc1ccc(C(=O)c2cn(CC(=O)Nc3ccc(F)cc3)c3ccc(F)cc3c2=O)cc1` here?
Its survival is inactive: 58%.

`COc1cc(NS(=O)(=O)c2cc3[nH]c(=O)[nH]c3cc2C)cc(OC)c1OC` was tested. Which survival did it give?
The survival was active: 37%.

With `CCCC1(C)NC(=O)c2ccccc2O1` (configuration not stated) as the compound, how does the survival read?
The survival was inactive: 75%.

Which survival does the source give for `CCOc1ccc(NC(=O)C2CC(=O)NC(N3CCCCC3)=N2)cc1` (configuration not stated) here?
Its survival is inactive: 81%.

Which survival does the source give for `CCc1ccc(CNC(=O)C2COc3ccccc3C2)cc1` (configuration not stated) here?
The survival was inactive: 81%.

`Cc1ccc2c(c1)c(=O)c1ccccc1n2CCCC(=O)Nc1ccc(C)c(C)c1` was tested. Which survival did it give?
The survival was active: 43%.

With `Cc1ccc(COC(=O)c2[nH]c3c(c2C)C(=O)CC(c2ccc(Cl)cc2)C3)cc1` (configuration not stated) as the compound, how does the survival read?
The survival was inactive: 102%.

`CC(C)OC(=O)c1ccc(NC(=O)CSc2nc(-c3cccs3)cc(C(F)(F)F)n2)cc1` was tested. Which survival did it give?
Its survival is inactive: 48%.

Which survival does the source give for `CC(C)CC(=O)n1nc(-c2ccco2)nc1NCc1ccc(Cl)cc1` here?
Its survival is inactive: 77%.

`CC1CCCCN1C(=O)CSc1nnc(CNc2ccc(Cl)cc2)o1` (configuration not stated) was tested. Which survival did it give?
Its survival is inactive: 91%.
